The source of these data is paper PMC4336329 (PLoS ONE, 2015).

About 2,200 (0.71%) of roughly 310,000 compounds showed an effect of 50% or more. Effects have a minus sign here. This is one part of the list.

In the test the target is human ether-à-go-go-related gene (hERG) potassium channel (human, UniProt Q12809). Put plainly: primary screen, population patch clamp on CHO cells stably expressing hERG.
Chain of human ether-à-go-go-related gene (hERG) potassium channel (Q12809 whole entry, looked up): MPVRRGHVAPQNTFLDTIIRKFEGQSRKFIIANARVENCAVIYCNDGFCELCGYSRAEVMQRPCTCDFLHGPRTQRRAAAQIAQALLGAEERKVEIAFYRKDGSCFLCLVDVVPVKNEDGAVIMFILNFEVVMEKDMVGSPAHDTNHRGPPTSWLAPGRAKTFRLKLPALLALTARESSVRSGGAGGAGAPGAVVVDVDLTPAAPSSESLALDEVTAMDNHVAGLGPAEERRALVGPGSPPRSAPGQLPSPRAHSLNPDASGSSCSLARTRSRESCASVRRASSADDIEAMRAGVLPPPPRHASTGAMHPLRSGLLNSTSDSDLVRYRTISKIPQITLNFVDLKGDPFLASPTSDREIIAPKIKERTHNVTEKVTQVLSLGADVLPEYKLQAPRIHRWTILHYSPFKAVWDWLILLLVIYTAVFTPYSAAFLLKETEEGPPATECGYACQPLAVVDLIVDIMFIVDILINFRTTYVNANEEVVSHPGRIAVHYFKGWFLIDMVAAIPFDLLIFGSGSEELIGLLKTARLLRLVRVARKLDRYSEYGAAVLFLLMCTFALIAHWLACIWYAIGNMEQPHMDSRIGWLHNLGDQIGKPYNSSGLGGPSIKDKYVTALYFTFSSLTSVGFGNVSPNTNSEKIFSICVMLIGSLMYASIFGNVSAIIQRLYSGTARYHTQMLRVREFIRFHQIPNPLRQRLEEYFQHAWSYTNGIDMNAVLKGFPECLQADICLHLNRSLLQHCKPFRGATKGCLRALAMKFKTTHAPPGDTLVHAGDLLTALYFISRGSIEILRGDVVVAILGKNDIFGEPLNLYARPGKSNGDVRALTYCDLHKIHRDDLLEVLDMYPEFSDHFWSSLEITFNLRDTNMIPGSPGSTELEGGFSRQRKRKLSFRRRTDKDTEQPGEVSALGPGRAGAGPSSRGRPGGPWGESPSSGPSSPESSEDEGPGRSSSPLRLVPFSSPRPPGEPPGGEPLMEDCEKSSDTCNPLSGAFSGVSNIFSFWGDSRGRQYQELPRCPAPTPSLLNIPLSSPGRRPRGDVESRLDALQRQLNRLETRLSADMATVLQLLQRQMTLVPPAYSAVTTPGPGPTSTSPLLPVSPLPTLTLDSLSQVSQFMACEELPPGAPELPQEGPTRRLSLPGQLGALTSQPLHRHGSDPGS
As to `CCN(CC(=O)Nc1c(F)cccc1F)C(=O)CCCc1nc2ccccc2c(=O)[nH]1`, the “hERG current change (%, negative = inhibition) at 1uM” value is 7.51%. Next, `Cc1cc(C)n(-c2cc(N3CCN(S(=O)(=O)c4ccc(Cl)cc4)CC3)ccc2[N+](=O)[O-])n1`: 5.54%; `O=S1(=O)CCC(NS(=O)(=O)c2ccc3ccccc3c2)C1` (stereo not drawn): 12%.

Regarding `O=C(O)C(=O)O.O=C(c1ccc(F)cc1)N1CCN(C2CCC(c3ccccc3)CC2)CC1` (stereo not drawn), the “hERG current change (%, negative = inhibition) at 1uM” value was -48.3%.

Take `CCCNC(=O)c1c(NC(=O)C2COc3ccccc3O2)sc2c1CCCC2` (stereo not drawn): the “hERG current change (%, negative = inhibition) at 1uM” value is on record as -1.64%.

For the molecule `COc1ccccc1CNC(=O)c1cc(S(=O)(=O)N2CCCCC2)c[nH]1`, the “hERG current change (%, negative = inhibition) at 1uM” value came to 10.9%.

For the molecule `CCn1cc(CN2CCC(n3nccc3NC(=O)C3CCCC3)CC2)cn1`, the “hERG current change (%, negative = inhibition) at 1uM” value is on record as 17.1%. To `CCOc1ccc(NC(=O)CN(C)C(=O)CN2C(=O)C3CC=CCC3C2=O)cc1OCC` (stereo not drawn) belongs 15%. For `CC(CCl)OC(C)CCl` (stereo not drawn), the “hERG current change (%, negative = inhibition) at 1uM” value came to 9.1%.

For `CCn1cc(C(=O)NCCN(C)CCc2ccccc2)c(=O)c2cc(S(=O)(=O)N(C)C)ccc21`, the “hERG current change (%, negative = inhibition) at 1uM” value is given as -1.34%. Regarding `CC(=O)c1ccc(OCc2cc(C(=O)NCC3CCCCO3)no2)cc1` (stereo not drawn), the “hERG current change (%, negative = inhibition) at 1uM” value is given as 8.16%. Consider `C=CCOc1ccc(/C=C2/C(=O)ON=C2C)cc1OC`, for which the “hERG current change (%, negative = inhibition) at 1uM” value worked out at 16.8%. `Cc1ccccc1Nc1c(-c2ccccn2)nc2c(C)cccn12`: the “hERG current change (%, negative = inhibition) at 1uM” value is 1.2%. Consider `O=C(NCc1ccc(F)cc1)C(Cc1ccccc1)NS(=O)(=O)c1cccs1` (stereo not drawn), for which the “hERG current change (%, negative = inhibition) at 1uM” value was 13.5%. Next, `CCCSC(=S)NC1CCS(=O)(=O)C1` (stereo not drawn): 10.5%; `COc1ccccc1C1CCN(Cc2ccc(C)cc2)CC1`: -61.2%; `COc1ccc(C(=O)O)cc1N1C(=O)Nc2ccccc2N1O`: 6.57%. Turning to `COc1ccc(CN(CCC(c2ccc(F)cc2)C2CCOC(C)(C)C2)C(=O)c2ccco2)cc1` (stereo not drawn), the “hERG current change (%, negative = inhibition) at 1uM” value is given as -9.6%. As for `NC(=O)c1ccsc1NC(=O)C1CCCN1S(=O)(=O)c1ccc(Cl)cc1` (stereo not drawn), the “hERG current change (%, negative = inhibition) at 1uM” value is -18%. In the case of `COC(=O)c1cn(C(=O)c2ccc(C)cc2)c2ccccc12`, the “hERG current change (%, negative = inhibition) at 1uM” value was 11.9%. To `CCOC(=O)C1=C(C)NC(C)=C(C(=O)OC)C1c1ccco1` (stereo not drawn) belongs 7.62%. Take `C=C(C)CN1C(=O)C2(OCCO2)c2cc(Br)ccc21`: the “hERG current change (%, negative = inhibition) at 1uM” value is recorded as 6.49%.

For `COc1ccc(-n2c(SCC(=O)Nc3cc(C)on3)nc3c([nH]c4ccccc43)c2=O)cc1OC`, the “hERG current change (%, negative = inhibition) at 1uM” value was 16.1%. As for `CCCONC(=O)Nc1ccccc1[N+](=O)[O-]`, the “hERG current change (%, negative = inhibition) at 1uM” value is on record as 15.7%. Next, `Cc1ccc(N2CCN(C(=O)N3CCCC3)CC2)cc1Cl`: 18.9%; `COCCOC(=O)c1c(NC(=O)CN(C)c2ccccc2)sc(C(N)=O)c1C`: 7.19%. As to `CCc1ccc(NC(=O)C(C)Sc2nc(-c3ccco3)c(C#N)c(=O)[nH]2)cc1` (stereo not drawn), the “hERG current change (%, negative = inhibition) at 1uM” value was 21.2%. As for `COc1ccc(NC2CCCN(C(=O)c3cccnc3)C2)cc1` (stereo not drawn), the “hERG current change (%, negative = inhibition) at 1uM” value was 14.4%. In the case of `CCCCN(C(=O)c1cc(=O)[nH]c2ccccc12)c1c(N)n(CCC)c(=O)[nH]c1=O`, the “hERG current change (%, negative = inhibition) at 1uM” value was -1.15%.

With `O=C(Nc1cccn(Cc2c(F)cccc2Cl)c1=O)NC1CCCCC1`, the “hERG current change (%, negative = inhibition) at 1uM” value is on record as 17.6%. In the case of `COc1ccc(NC(=O)C2CCN(S(=O)(=O)c3ccc(OC)c(OC)c3)CC2)cc1`, the “hERG current change (%, negative = inhibition) at 1uM” value turned out to be 12.9%. To `COc1ccc(NC(=O)CCC(=O)Nc2nnc(CC(C)C)s2)cc1Cl` belongs 14.1%. Next, `Cc1cc(=O)oc2c3c(cc(OCC(=O)NC4CC4)c12)OC(C)(C)CC3`: 9.53%; `COc1cccc(C(=O)C2CCCN(Cc3cccc(-n4cccn4)c3)C2)c1` (stereo not drawn): -15.1%; `Cc1cc(C)c(S(=O)(=O)Nc2cccnc2)c(C)c1`: 2.61%. For `CCn1cc(C(=O)O)c(=O)c2cc(F)c(N3CCN(C(=S)NC(=O)c4ccccc4Br)CC3)cc21`, the “hERG current change (%, negative = inhibition) at 1uM” value worked out at 15.2%. Next, `Cc1ccc(C(=O)CCC(=O)OCC(=O)Nc2c(C)nn(-c3ccccc3)c2C)cc1`: 15.1%; `CC(C)[C@H](NC(=O)C1CCN(S(=O)(=O)c2ccc(F)cc2)CC1)C(=O)N1CCCC1`: 18.2%. To `O=C(Nc1ncccn1)C1=C(O)c2ccccc2S(=O)(=O)N1Cc1ccccc1` belongs 12.1%; to `COc1ccc(NC(=O)Cn2c([N+](=O)[O-])cnc2C)cc1Cl`, 3.7%.

For the molecule `CCc1nc2nc(C)c(NS(=O)(=O)c3cccs3)c(=O)n2[nH]1`, the “hERG current change (%, negative = inhibition) at 1uM” value was determined as 6.42%. Regarding `O=[N+]([O-])c1cccc(CSc2nnc(Cc3ccccc3)n2-c2ccc(F)cc2)c1`, the “hERG current change (%, negative = inhibition) at 1uM” value was found to be 2.27%.

For the molecule `CC(C)NCC(O)COc1cccc2[nH]ccc12` (stereo not drawn), the “hERG current change (%, negative = inhibition) at 1uM” value is 14.3%. For the molecule `COc1cc(/C=N/NC(=O)C(N)=O)ccc1OC(=O)c1cccs1`, the “hERG current change (%, negative = inhibition) at 1uM” value is on record as 12.4%. `CCOC(=O)C1(CC2CC2)CCN(Cc2cn[nH]c2-c2cccc(F)c2)CC1`: the “hERG current change (%, negative = inhibition) at 1uM” value is recorded as -57.6%. Take `O=C(/C=C/Sc1ccccc1)c1ccc(Cl)cc1`: the “hERG current change (%, negative = inhibition) at 1uM” value was 13%. With `CCOC(=O)CSc1nc2sc3c(c2c(=O)[nH]1)CCCC3`, the “hERG current change (%, negative = inhibition) at 1uM” value is 6.92%. To `CCCS(=O)(=O)Nc1c(OC)ccc2c1c(C(=O)OCC)c(C)n2C` belongs 1.16%; to `O=C(COc1ccc(Cl)cc1Br)NCC(c1ccco1)N1CCCC1` (stereo not drawn), 4.95%.

Take `Cc1ccc(C(=O)COC(=O)CCS(=O)(=O)c2ccccc2)cc1[N+](=O)[O-]`: the “hERG current change (%, negative = inhibition) at 1uM” value is 16.5%. Turning to `O=C(O)C(=O)O.c1coc(CNC2CCCCC2)c1`, the “hERG current change (%, negative = inhibition) at 1uM” value turned out to be 1.96%.

As to `CCOC(=O)C1CCN(S(=O)(=O)c2ccc3c4c(cccc24)C(=O)N3)CC1`, the “hERG current change (%, negative = inhibition) at 1uM” value was -1.6%.

For the molecule `Cc1c(OC(C)C(=O)NCc2cccnc2)ccc2c3c(c(=O)oc12)CCCC3` (stereo not drawn), the “hERG current change (%, negative = inhibition) at 1uM” value worked out at 2.67%. As to `Cc1onc(C(=O)Nc2ccc(OC(F)(F)F)cc2)c1[N+](=O)[O-]`, the “hERG current change (%, negative = inhibition) at 1uM” value is 23%. In the case of `Cc1oc2cc3c(C(=O)N4CCCCC4)c(C)oc3cc2c1C(=O)N1CCCCC1`, the “hERG current change (%, negative = inhibition) at 1uM” value was found to be 2.21%. Next, `O=C(OCC(=O)N1CCc2ccccc21)c1ccc(Cl)nc1`: 13.1%; `CN(C)C(=O)CSc1nnc2sc3ccccc3n12`: 9.24%.

On to `Cc1nc(-c2ccccc2)sc1C(=O)/C=C/c1ccccc1`, for which the “hERG current change (%, negative = inhibition) at 1uM” value stood at 6.29%. `COc1cc(/C=C/C(=O)NC(=O)c2ccccc2O)ccc1OC(C)=O`: the “hERG current change (%, negative = inhibition) at 1uM” value is recorded as 6.59%. In the case of `COc1ccc(/C=C/C(=O)N(C)C2CCCCC2)cc1Br`, the “hERG current change (%, negative = inhibition) at 1uM” value is listed as 6.47%.

For the molecule `CCNc1nc(SCCOc2ccc(C)cc2)nc(N(C)C)n1`, the “hERG current change (%, negative = inhibition) at 1uM” value came to 8.71%. On to `Cc1cc(C)n(CC(=O)n2c3ccccc3c3ccccc32)n1`, for which the “hERG current change (%, negative = inhibition) at 1uM” value was 5%. As to `O=C(O)CN(Cc1ccccc1)S(=O)(=O)c1ccc2c(c1)OCCO2`, the “hERG current change (%, negative = inhibition) at 1uM” value is given as 9.21%. Turning to `CC(=O)c1cccc(NC(=O)c2ccc(N(C)S(=O)(=O)c3ccc(C)cc3)cc2)c1`, the “hERG current change (%, negative = inhibition) at 1uM” value is on record as 10.3%. On to `Cc1ccc(C(C(=O)NC2CCCCC2)N(C(=O)c2csnn2)c2ccccc2F)o1` (stereo not drawn), for which the “hERG current change (%, negative = inhibition) at 1uM” value turned out to be 12.7%. For the molecule `CCOc1ccc(NC(=O)c2ccc(N)cc2)cc1`, the “hERG current change (%, negative = inhibition) at 1uM” value was 3.78%.

For the molecule `COc1ccc(-c2cc(C(F)(F)F)c3c(=O)n(-c4ccccc4)[nH]c3n2)cc1`, the “hERG current change (%, negative = inhibition) at 1uM” value is listed as 16%. With `COc1ccc(Cl)cc1NC(=O)CNc1ccccc1N1CCOCC1`, the “hERG current change (%, negative = inhibition) at 1uM” value was 25.4%.

`O=C(c1cc2ccccc2o1)N1CCCCCC1`: the “hERG current change (%, negative = inhibition) at 1uM” value is recorded as 10%.

Turning to `COc1nc2c(C)cccc2cc1-c1noc(-c2ccco2)n1`, the “hERG current change (%, negative = inhibition) at 1uM” value was -5.92%.

On to `NC(=O)c1c(NC(=O)c2cc3ccccc3o2)sc2c1CCC2`, for which the “hERG current change (%, negative = inhibition) at 1uM” value worked out at 9.41%. To `O=C(CNS(=O)(=O)c1ccc(Br)cc1Cl)OCC(=O)N1CCCC1=O` belongs 4.8%; to `O=C(N/N=C\c1c(O)ccc2ccccc12)c1ccc(Cn2cccn2)o1`, 1.04%. For the molecule `O=c1[nH]c(C2CCCN(S(=O)(=O)c3ccccc3)C2)nc2c1nnn2Cc1ccc(OC(F)(F)F)cc1` (stereo not drawn), the “hERG current change (%, negative = inhibition) at 1uM” value came out at 25.8%. `COc1ccc(CN2CC(C(N)=O)Oc3ccccc32)cc1F` (stereo not drawn): the “hERG current change (%, negative = inhibition) at 1uM” value is 13.3%. With `Cc1oc2c(CN3CCCCC3C)c(O)ccc2c(=O)c1-c1ccc(Br)cc1` (stereo not drawn), the “hERG current change (%, negative = inhibition) at 1uM” value is recorded as -13.4%. With `CCCn1c(SCC(=O)Nc2ccccc2C(=O)OC)nc2c1c(=O)n(C)c(=O)n2C`, the “hERG current change (%, negative = inhibition) at 1uM” value is reported as -4.05%. Take `Cc1cccc(C(=O)NCC(=O)N2CC(=O)Nc3ccccc32)c1`: the “hERG current change (%, negative = inhibition) at 1uM” value was determined as 22.6%. `CC(NC(=O)c1ccccc1F)c1nnc(SCC(=O)N2CCN(c3ccccc3)CC2)n1C` (stereo not drawn): the “hERG current change (%, negative = inhibition) at 1uM” value was 5.17%.

As to `O=C(c1ccco1)N1CCN(C(=O)c2ccc(-c3cccc(C(F)(F)F)c3)o2)CC1`, the “hERG current change (%, negative = inhibition) at 1uM” value was -63.5%.

Regarding `COc1ccccc1N1CCN(C(=O)CCc2nnc3ccc(N4CCC(C)CC4)nn23)CC1`, the “hERG current change (%, negative = inhibition) at 1uM” value was -3.25%.

For the molecule `COc1ccc(NC(=O)Nc2ccc3c(c2)CCC3)cc1`, the “hERG current change (%, negative = inhibition) at 1uM” value is -3.76%. Consider `CCCCc1ccc(NC(=O)CSc2nc(=O)n(CCN(CC)CC)c3c2CCCC3)cc1`, for which the “hERG current change (%, negative = inhibition) at 1uM” value was 2.3%. As to `CCCCc1ccc(-c2csc(/C(C#N)=C\c3ccc(C)o3)n2)cc1`, the “hERG current change (%, negative = inhibition) at 1uM” value was 11.5%.

As to `CCC(=O)N1CCC2(CC1)Oc1ccc(F)cc1C(=O)C21CC(c2ccc(Cl)cc2)=NO1` (stereo not drawn), the “hERG current change (%, negative = inhibition) at 1uM” value is 7.96%. For `CC(Cc1ccccc1)C(=O)NCc1nc2ccccc2s1` (stereo not drawn), the “hERG current change (%, negative = inhibition) at 1uM” value came out at 10.4%.

Consider `Cc1ccc(NC(=O)c2cc([N+](=O)[O-])ccc2NCc2cccnc2)cc1Cl`, for which the “hERG current change (%, negative = inhibition) at 1uM” value is on record as 0.0426%.
